This is an account of results in paper PMC3199943, “Screening the MayBridge Rule of 3 Fragment Library for Compounds That Interact with the Trypanosoma brucei myo-Inositol-3-Phosphate Synthase and/or Show Trypanocidal Activity” (Molecular Biology International, 2011).

Each structure is given as a SMILES string. Structures can show the parent of a compound that is named as a salt.

In the first test the test system is cultured bloodstream T. brucei (strain 427). Nature of the test: microbe, parasite or virus in culture. To be noted: Trypanosoma brucei, read-out: T. brucei Alamar Blue. (Alamar Blue is a resazurin reagent that responds to reducing activity.)
Turning to `Nc1cccc(-c2cccnc2)c1` [compound 346, 3‐pyridin‐3‐ylaniline], the viability at 500 µM stood at 35.6 ± 9.3%.

`O=C(O)C(O)c1ccccc1` (stereo not drawn) [compound 202, 2‐hydroxy‐2‐phenylacetic acid]: the viability at 500 µM worked out at 107 ± 16%. On to `CC(=O)CSc1ccc(C)cc1` [compound 460, 1‐[(4‐methylphenyl)thio]acetone], for which the viability at 500 µM came out at 34.1 ± 5.3%. Still for that read-out and setting: under `OCc1ccc(-c2ccccn2)cc1` [compound 490, (4‐pyrid‐2‐ylphenyl)methanol] stands 77 ± 4.4%; under `CC(=O)NCc1cccnc1` [compound 188, N1‐(3‐pyridylmethyl)acetamide], 88.2 ± 7%; under `O=C(O)c1cccc(-n2cccc2)c1` [compound 511, 3‐(1H‐pyrrol‐1‐yl)benzoic acid], 46.2 ± 19.1%. Regarding `Cn1c(=O)cc(O)c2ccccc21` [compound 395, 4-hydroxy-1-methyl-1,2-dihydroquinolin-2-one], the viability at 500 µM was found to be 54.3 ± 16.4%.

With `NCc1cc(Cl)cc(Cl)c1` [compound 405, 3,5‐dichlorobenzylamine], the viability at 500 µM is 30.8 ± 5.6%. In the case of `NCc1ccc(F)cc1` [compound 71, 4‐fluorobenzylamine], the viability at 500 µM was determined as 73.4 ± 16.8%.

Regarding `COc1cccc(N)c1` [compound 61, 3‐methoxyaniline], the viability at 500 µM turned out to be 67.4 ± 6.7%. Same read-out and setting: under `CN1CCN(C)C(CO)C1` (stereo not drawn) [compound 154, (1,4‐dimethyl‐2‐piperazinyl)methanol] stands 89.2 ± 16.1%. Regarding `OCc1cccnc1N1CCCC1` [compound 440, [2‐(1‐pyrrolidinyl)‐3‐pyridinyl]methanol], the viability at 500 µM came to 44.3 ± 11.8%. Turning to `Cc1cccc2c1NCCC2` [compound 166, 8‐methyl‐1,2,3,4‐tetrahydroquinoline], the viability at 500 µM was 55.8 ± 21.7%. Regarding `O=c1c2ccccc2oc2ncccc12` [compound 600, 5H‐chromeno[2,3‐b]pyridin‐5‐one], the viability at 500 µM was found to be 80.8 ± 9.9%. Take `N#CC1(O)CN2CCC1CC2` (stereo not drawn) [compound 208, 3‐hydroxyquinuclidine‐3‐carbonitrile]: the viability at 500 µM is 102 ± 18%. Consider `N#CCc1ccccn1` [compound 46, 2‐(2‐pyridyl)acetonitrile], for which the viability at 500 µM was 44.1 ± 16.1%. In the case of `Cn1c(CO)cc2sccc21` [compound 331, (4-methyl-4H-thieno[3,2-b]pyrrol-5-yl)methanol], the viability at 500 µM amounted to 31 ± 7.1%. In the case of `Cn1ccc(N)n1` [compound 8, 1‐methyl‐1H‐pyrazol‐3‐amine], the viability at 500 µM was found to be 93.4 ± 0.9%. In the case of `OCc1cnccn1` [compound 23, 2‐pyrazinylmethanol], the viability at 500 µM was 110 ± 11.8%. Turning to `CC(=O)c1c(O)cccc1O` [compound 204, 1-(2,6-dihydroxyphenyl)ethan-1-one], the viability at 500 µM is 45.2 ± 9.7%.

As to `NC(=O)c1ccc(F)c(Cl)c1` [compound 380, 3‐chloro‐4‐fluorobenzamide], the viability at 500 µM stood at 90.8 ± 9.6%. As for `CCOC(=O)C1CCNCC1` [compound 245, ethyl piperidine‐4‐carboxylate], the viability at 500 µM was 93.2 ± 7.2%.

For `CNCc1ccc(OC)cc1` [compound 199, N‐(4‐methoxybenzyl)‐N‐methylamine], the viability at 500 µM is 92.2 ± 16.8%.

`Cc1nc(C)c(CO)s1` [compound 147, (2,4‐dimethyl‐1,3‐thiazol‐5‐yl)methanol]: the viability at 500 µM amounted to 98 ± 16.2%. As for `COC(=O)Cc1cccc(OC)c1` [compound 451, methyl 2‐(3‐methoxyphenyl)acetate], the viability at 500 µM is 50.7 ± 17.1%. Consider `OCc1ccc(-c2ccncc2)cc1` [compound 488, (4‐pyrid‐4‐ylphenyl)methanol], for which the viability at 500 µM amounted to 89.5 ± 10.5%. On the same count and under the same terms, under `NCc1ccccc1-n1cccc1` [compound 363, [2‐(1H‐pyrrol‐1‐yl)phenyl]methylamine] stands 28.8 ± 7.9%. Take `O=C(O)CCC(=O)c1cccs1` [compound 478, 4-oxo-4-(2-thienyl)butanoic acid]: the viability at 500 µM is 104 ± 13.1%. Regarding `OCC1CCc2ccccc2O1` (stereo not drawn) [compound 299, 3,4‐dihydro‐2H‐chromen‐2‐ylmethanol], the viability at 500 µM is 66.4 ± 16.2%.

Consider `OCc1ccc(-c2cccs2)s1` [compound 598, 2,2′-bithien-5-ylmethanol], for which the viability at 500 µM was determined as 55.3 ± 15.6%. Turning to `Cc1ncsc1C(=O)O` [compound 145, 4‐Methyl‐thiazole‐5‐carboxylic acid], the viability at 500 µM is 115 ± 9.7%. As for `Nc1ccc2occc2c1` [compound 100, 1‐benzofuran‐5‐amine], the viability at 500 µM came out at 38 ± 6.4%. Regarding `CNCc1ccncc1` [compound 56, N‐methyl‐N‐(4‐pyridinylmethyl)amine], the viability at 500 µM was found to be 86.8 ± 7.8%.

`O=C(O)CC12CC3CC(CC(C3)C1)C2` [compound 588, 2‐(1‐adamantyl)acetic acid]: the viability at 500 µM turned out to be 48.1 ± 17.5%. Regarding `OCc1ccc(-c2cccs2)cc1` [compound 544, (4‐thien‐2‐ylphenyl)methanol], the viability at 500 µM stood at 71.6 ± 7%. For the molecule `Cn1ccnc1CO` [compound 34, (1‐methyl‐1H‐imidazol‐2‐yl)methanol], the viability at 500 µM turned out to be 133 ± 1.6%.

Turning to `N#Cc1ccc(O)cc1F` [compound 120, 2‐fluoro‐4‐hydroxybenzonitrile], the viability at 500 µM is 39 ± 9.1%. In the case of `OCc1ccc2c(c1)OCO2` [compound 200, 1,3‐benzodioxol‐5‐ylmethanol], the viability at 500 µM is 84.2 ± 5.9%. Same read-out and setting: under `CNc1ccc(F)cc1F` [compound 144, N1‐methyl‐2,4‐difluoroaniline] stands 38.1 ± 11.4%; under `O=C(O)c1ccc2ncccc2c1` [compound 370, quinoline‐6‐carboxylic acid], 107 ± 8.1%; under `Cn1ccc2ccc(C(=O)O)cc21` [compound 398, 1‐methyl‐1H‐indole‐6‐carboxylic acid], 88.8 ± 14.9%. Take `Cc1csc(C(=O)O)c1` [compound 139, 4‐methylthiophene‐2‐carboxylic acid]: the viability at 500 µM is 121.9 ± 1.1%.

Regarding `OCc1cccc(-c2cncnc2)c1` [compound 504, (3‐pyrimidin‐5‐ylphenyl)methanol], the viability at 500 µM turned out to be 87.8 ± 5.8%. Regarding `OCc1csc2ccc(Cl)cc12` [compound 608, (5‐chloro‐1‐benzothiophen‐3‐yl)methanol], the viability at 500 µM is 99 ± 26.1%. As to `O=C(O)c1ccncc1` [compound 60, isonicotinic acid], the viability at 500 µM was found to be 90.7 ± 13.8%. For the molecule `Cc1cccc(O)n1` [compound 19, 6‐methylpyridin‐2‐ol], the viability at 500 µM worked out at 94.5 ± 12.2%. For `OCc1ccc2ncccc2c1` [compound 255, 6‐quinolinylmethanol], the viability at 500 µM came to 48.1 ± 12%.

In the case of `Cc1cc(N)[nH]n1` [compound 6, 3‐methyl‐1H‐pyrazol‐5‐amine], the viability at 500 µM was determined as 94.9 ± 3.6%.

For `O=C(O)c1nsc(Cl)c1Cl` [compound 602, 4,5‐dichloroisothiazole‐3‐carboxylic acid], the viability at 500 µM came to 31.7 ± 9.1%. Consider `Cn1cncc1C#N` [compound 15, 1‐methyl‐1H‐imidazole‐5‐carbonitrile], for which the viability at 500 µM was determined as 93.4 ± 4.5%. Regarding `O=C(O)Cc1cccnc1` [compound 381, pyridin‐3‐ylacetic acid hydrochloride], the viability at 500 µM stood at 111 ± 15.5%.

Still in this test, the particulars now being: Trypanosoma brucei, read-out: T. brucei Alamar Blue (% survival).
On to `Cn1c(=O)cc(O)c2ccccc21` [compound 395, 4-hydroxy-1-methyl-1,2-dihydroquinolin-2-one], for which the viability at 500 µM came out at 54.3 ± 16.4%. With `Cn1c(CO)cc2sccc21` [compound 331, (4-methyl-4H-thieno[3,2-b]pyrrol-5-yl)methanol], the viability at 500 µM came to 31 ± 7.1%. On the same count and under the same terms, under `CC(=O)c1c(O)cccc1O` [compound 204, 1-(2,6-dihydroxyphenyl)ethan-1-one] stands 45.2 ± 9.7%; under `O=C(O)CCC(=O)c1cccs1` [compound 478, 4-oxo-4-(2-thienyl)butanoic acid], 104 ± 13.1%. Take `OCc1ccc(-c2cccs2)s1` [compound 598, 2,2′-bithien-5-ylmethanol]: the viability at 500 µM is 55.3 ± 15.6%.

Staying with this test, now noted: Trypanosoma brucei, read-out: T. brucei ED50, ED50 ± SD (n = 4).
`Cn1c(CO)cc2sccc21` [compound 331, (4-methyl-4H-thieno[3,2-b]pyrrol-5-yl)methanol]: the IC50 worked out at 121 ± 15 µM.
